Laboratory results from PubChem BioAssay (NCI).
Values joined by “and” are separate entries in the source; they are usually repeats but may differ in a detail not shown here. Equal values may be shown once.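 Each compound was tested at five concentrations against cells in 96-well plates for 48 hours. GI50: concentration for 50% inhibition of growth. TGI: total growth inhibition.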

Test system: NCI-H322M lung
Experiment: NCI-60 cell line screen, 48 h

| Structure (SMILES) | GI50 | TGI |
| --- | --- | --- |
| CN(C)CCCSc1ccccc1NC1=C(Cl)C(=O)C(Nc2ccccc2SCCCN(C)C)=C(Cl)C1=O | 12.5 µM | 25.2 µM |
| c1cc2nnsc2s1 | – | > 100 µM |
| Oc1ccc2c3c1OC1c4[nH]ncc4C[C@H]4[C@@H](C2)N(CC2CC2)CC[C@]314 (stereo partly drawn) | – | > 100 µM |
| CC(C)(c1ccccc1)c1cc(O)c(C(C)(C)c2ccccc2)cc1O | 3.23 µM | 15.8 µM |
| O=C(O)c1ccc(C(O)(c2ccccc2)c2ccccc2)cc1 | – | > 100 µM |
| COC(=O)c1cc2oc(/C=C3/SC(=S)N(N)C3=O)cc2n1Cc1ccccc1 | 24.6 µM | > 84.2 µM |
| O=C(O)C1(Cc2ccccc2)Cc2cc3c(cc2C1)CCC3 | – | > 100 µM |
| O=C1Cc2nc(CO)c(CO)c(CO)c2CO1 | – | > 100 µM |
| COC(=O)c1ccccc1CC1Cc2cc3c(cc2C1=O)CCC3 (stereo not drawn) | – | > 100 µM |
| O=C(COc1cccc(/C=C2\CSc3ccc(Cl)cc3C2=O)c1)c1ccc(Cl)cc1 | 27.1 µM | > 100 µM |
| C[C@@H]1C(=O)O[C@H]1[C@H](O)CO | – | > 100 µM |
| COc1ccc2[nH]c3c(c2c1)CC(=O)N1CCCC(CC3O)C1 (stereo not drawn) | – | > 100 µM |
| N/N=C(\c1nc2ccc([N+](=O)[O-])cc2[nH]c1=O)C(O)c1ccc(Cl)c(Cl)c1 (stereo not drawn) | – | > 100 µM |
| COc1ccc(NC2=C(I)C(=O)c3ncccc3C2=O)cc1 | 1.49 µM | 2.87 µM |
| Nc1ccc(O)c2c1C(=O)c1c(N)ccc(O)c1C2=O | – | > 100 µM |
| C/C=C/C=C\C=C/C(O)C(C)C(CCC(C)C1OC(=O)C=CC1C)OP(=O)(O)O (stereo not drawn) | – | 2.09 µM |
| COc1cc(/C=N/c2nc3cc4sc(/N=C/c5cc(OC)c(OC)c(OC)c5)nc4cc3s2)cc(OC)c1OC | – | > 100 µM |
| CCOC(=O)CCC(C(=O)OCC)n1nc2ccc(Nc3c(C)[n+]([O-])c4cc(F)c(OCC)cc4[n+]3[O-])cc2n1 (stereo not drawn) | – | > 100 µM |
| Cc1c2c(nc3ccccc13)C(=O)c1cccnc1C2=O | – | > 100 µM |
| CC(C)CCCC(C)[C@H]1CC[C@H]2n3c(nc4ccccc43)CCC[C@]12C (stereo partly drawn) | – | 37.2 µM |
| COc1ccc2c3c1OC1C(OC)(OC)C=C[C@@]4(Br)[C@@H](C2)N(CC2CC2)CC[C@]314 (stereo partly drawn) | – | > 100 µM |
| CSc1nc(CO)c(CO)n1C | – | > 100 µM |
| CC1=NN(C(=O)Nc2ccc(Cl)cc2)C(=O)C2CCC(=O)N12 (stereo not drawn) | – | > 100 µM |
| CCCCN1C(=O)c2c(Br)sc(Br)c2C1=O | – | > 100 µM |

| Structure (SMILES) | GI50 | TGI |
| --- | --- | --- |
| Cc1c(/C=N/NC(=S)Nc2ccc(Cl)cc2)c(=O)n(-c2ccccc2)n1C | – | > 100 µM |
| COC(=O)[C@]12CC[C@@H](C)[C@H](C)[C@@H]1C1=CC[C@@H]3[C@@]4(C)C[C@@H](OC(=O)/C=C/c5ccccc5)[C@H](O)[C@@](C)(CO)[C@@H]4[C@H](O)C[C@@]3(C)[C@]1(C)CC2 | 3.07 µM | 12.7 µM |
| Cn1c(=O)nc2n(-c3ccc(Cl)cc3)c3cc(Cl)ccc3nc-2c1=O | – | 23.5 µM |
| Oc1c(Cl)cc(Cl)cc1/C=N/Nc1nnc(N/N=C/c2cc(Cl)cc(Cl)c2O)c2ccccc12 | 0.455 µM | > 100 µM |
| NC1CCCCC1N.O=C1C=C/C(=C(/c2ccc(O)c(Br)c2)c2ccccc2S(=O)(=O)[O-])C=C1Br.O=C1C=C/C(=C(/c2ccc(O)c(Br)c2)c2ccccc2S(=O)(=O)[O-])C=C1Br.[Pt+4] | 4.56 µM | 91.8 µM |
| C#CC(=O)Nc1cccc2c1cc(C)n2-c1nc2c(c(NCc3ccccc3)n1)CCCC2 | 1.79 µM | 3.37 µM |
| CCOC(=O)C1=C(C)NC(=O)NC1CN1C(=O)c2ccccc2C1=O (stereo not drawn) | > 100 µM | > 100 µM |
| CN(C)C=Nc1c2ccccc2nc2ccccc12 | – | 35.7 µM |
| OC[C@H]1NC[C@@H](O)[C@@H](O)[C@H]1O | – | > 100 µM |
| COc1ccc(NC(C)=O)cc1N1C(=O)/C(=C\c2ccccc2)SC1c1cc(OC)c(OC)c(OC)c1 (stereo not drawn) | – | > 100 µM |
| O=C(CCc1ccccc1)NS(=O)(=O)c1ccccc1 | – | > 100 µM |
| CC12CCC(=O)N1c1cncnc1N2 (stereo not drawn) | – | > 10 µM |
| O=C(Oc1c(Cl)cc(C2(c3cc(Cl)c(OC(=O)c4ccccc4)c(Cl)c3)CCCCC2)cc1Cl)c1ccccc1 | – | 25.9 µM |
| CC1(CO)COS(=O)OC1 (stereo not drawn) | – | > 100 µM |
| CC(=O)CC/C=C(\C)[C@H](O)[C@H](C)C(=O)O[C@H]1C[C@H](C)C=C2C=C[C@@]3(C)O[C@@H](O)CC(=O)[C@]3(C)[C@H]21 | 1.11 µM | 4.93 µM |
| C/C(N)=C/C(=O)c1[nH]c(C(=O)O)cc1C1CCN(Cc2ccccc2)C1=O (stereo not drawn) | – | 78.7 µM |
| O=C(Cc1nc2ccccc2o1)C(=O)Nc1cccc(Cl)c1 | – | > 100 µM |
| N#CC1=C2SCCN2C(=O)C(C#N)C12CCCCC2 (stereo not drawn) | – | > 100 µM |
| C=CCC1(Sc2ccccn2)Sc2ccc3ccccc3c2-c2c(ccc3ccccc23)S1 | – | > 100 µM |
| CON(C)C(=O)[C@H]1C[C@@]1(C)CO | – | > 100 µM |
| O=C(NCCCNCCN1C(=O)c2cccc3cc([N+](=O)[O-])cc(c23)C1=O)c1cc(-c2ccccc2)nc2ccccc12 | – | 17 µM |
| COc1cc(/C=C2\CCC/C(=C\c3ccc(O)c(OC)c3)C2=O)ccc1O | 2.75 µM | 47.1 µM and 11 µM |
| COc1ccc(C(=O)c2c3cc(OC)c(OC)c(OC)c3cc[n+]2C)cc1 | – | > 100 µM |
| CN(C)CCNC(=O)c1cc(Cl)cc2cc3ccccc3nc12 | – | 4.48 µM |

| Structure (SMILES) | GI50 | TGI |
| --- | --- | --- |
| O/N=C(/CC(O)(C(F)(F)F)C(F)(F)F)c1ccccc1 | – | > 10 µM |
| CC1(C)N=C(N)N=C(N)N1c1ccc(OCCCNC(=O)Nc2cccc(S(=O)(=O)F)c2)c(Cl)c1 | 9.51 µM | > 100 µM |
| CCn1c2ccccc2c(=O)c2c(OC)ccc(OC)c21 | – | > 100 µM |
| COc1cc(-c2nc3sc(C)cn3c2/C=C2\C(=O)Nc3ccccc32)c(Br)c(OC)c1OC | 37.2 µM | > 100 µM |
| CC(=O)O[C@H]1CC[C@H]2[C@@H]3CCC4=CC(=O)C=C[C@]4(O)[C@H]3CC[C@]12C | – | > 100 µM |
| O=C(NCCCl)Nc1cccnc1 | – | 42 µM |
| CNC(=O)C1(C#N)C(c2ccccc2)C(C#N)(C(=O)NC)C1c1ccccc1 (stereo not drawn) | – | > 100 µM |
| COc1ccc2c(C)c(Oc3c(Cl)c(Cl)c(O)c(C#N)c3C#N)oc2c1 | – | > 100 µM |
| N#CCC(=O)N/N=C1/C(=O)N(c2cc(Cl)ccc2Cl)C(=O)C(=O)C1c1nc2ccccc2s1 (stereo not drawn) | – | > 100 µM |
| CCOC(=O)c1ccc(C(=O)n2ccnc2)[nH]1 | – | > 100 µM |
| CC(C)(C)c1cc(/C=N/NC(=O)c2ccccc2NC(=O)c2cccs2)c(O)c(C(C)(C)C)c1 | 0.736 µM | 39.5 µM |
| O=C1CC(c2ccccc2)Cc2nc3ccc(Br)cc3cc21 (stereo not drawn) | 0.766 µM | > 100 µM |
| Oc1ccc2ccccc2c1N=Nc1cc(Cl)ccc1Cl | – | > 50 µM |
| CCCCCCCCCCCCCCCCCCNc1ccn(C2OC(CO)C(OP(=O)(O)OCC(O)COP(=O)(O)OCC3OC(n4cc(F)c(NCCCCCCCCCCCCCCCCCC)nc4=O)CC3O)C2O)c(=O)n1 (stereo not drawn) | – | > 50 µM |
| Cc1ccc(S(=O)(=O)N2CCN(C=S)CC2)cc1 | – | > 100 µM |
| COC(=O)c1ccc(/C=C(\c2ccc([N+](=O)[O-])o2)S(=O)(=O)c2ccc(NC(C)=O)cc2)o1 | – | 33.4 µM |
| NS(=O)(=O)c1ccc(NC(=O)Cc2nc3ccccc3s2)cc1 | – | 31.8 µM |
| N#CC(C#N)=C/C=C/c1c(Cl)cccc1Cl | – | 6.45 µM |
| COC(=O)c1ncc2c(=O)[nH]c3ccccc3c2c1C(=O)OC | – | > 100 µM |
| Cn1cc(C2=C(c3cn(-c4ccccc4)c4ccccc34)C(=O)NC2=O)c2ccccc21 | > 25 µM | > 25 µM |
| O=C(NC(Cc1ccc(Br)cc1)C(=O)O)c1ccc(I)cc1 (stereo not drawn) | – | > 100 µM |
| O=C1c2cccnc2C(=O)c2c1c(C(=O)OCCN1CCCCC1)c1ccccn21 | 0.0322 µM | 0.867 µM |
